# Laboratory results: article PMC12820563
# Some of the results follow. The list includes weakly bound sequences.
# Molecular target: T1, MBP-FoxP3dN (UniProt Q99JB6)
# T1 sequence: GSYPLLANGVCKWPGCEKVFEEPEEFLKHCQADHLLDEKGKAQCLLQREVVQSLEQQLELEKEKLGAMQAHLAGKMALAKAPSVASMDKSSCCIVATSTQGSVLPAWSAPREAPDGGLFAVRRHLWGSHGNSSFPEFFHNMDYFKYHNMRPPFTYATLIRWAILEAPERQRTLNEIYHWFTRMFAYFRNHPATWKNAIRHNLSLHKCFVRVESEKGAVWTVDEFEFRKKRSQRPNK
# Assay: PD-seq (MBP pull-down with sequencing)
# Settings: 20 mM Tris-HCl pH 7.5, 100 mM NaCl, 1.5 mM MgCl2, 0.4 uM protein, 0.1 uM dsDNA library, 30 min, room temperature, amylose pull-down; high values mean tight binding; double strand, one strand shown
row,Sequence,binding signal (RPM ratio (pull-down/input))
1,GATGATTGTTCTCCCAGCTGATGAATTCAGTTACTCGAGTAAACAAATTTTCCTAATCTTTCTGTTCAAGCGCCATCTAC,1.55
2,GATGATTGTTCTCCCAGCTGATGAATTCTGATTATCGAGTAAACAAATTTTCCTAATCTTTCTGTTCAAGCGCCATCTAC,3.08
3,GATGATTGTTCTCCCAGCTGATGAATTACCCCTCTCGAGTAAACAAATTTTCCTAATCTTTCTGTTCAAGCGCCATCTAC,0.33
4,GATGATTGTTCTCCCAGCTGATGAATTTTGACCATCGAGTAAACAAATTTTCCTAATCTTTCTGTTCAAGCGCCATCTAC,0.551
5,GATGATTGTTCTCCCAGCTGATGAATTATAGCATTCGAGTAAACAAATTTTCCTAATCTTTCTGTTCAAGCGCCATCTAC,5.46
6,GATGATTGTTCTCCCAGCTGATGAATTCTGGTGTTCGAGTAAACAAATTTTCCTAATCTTTCTGTTCAAGCGCCATCTAC,1.18
7,GATGATTGTTCTCCCAGCTGATGAATTTAATCGATCGAGTAAACAAATTTTCCTAATCTTTCTGTTCAAGCGCCATCTAC,0.286
8,GATGATTGTTCTCCCAGCTGATGAATTCGTTGTTTCGAGTAAACAAATTTTCCTAATCTTTCTGTTCAAGCGCCATCTAC,5.15
9,GATGATTGTTCTCCCAGCTGATGAATTCTCTCTATCGAGTAAACAAATTTTCCTAATCTTTCTGTTCAAGCGCCATCTAC,0.292
10,GATGATTGTTCTCCCAGCTGATGAATTATACCGTTCGAGTAAACAAATTTTCCTAATCTTTCTGTTCAAGCGCCATCTAC,0.467
11,GATGATTGTTCTCCCAGCTGATGAATTGACGATCTCGAGTAAACAAATTTTCCTAATCTTTCTGTTCAAGCGCCATCTAC,0.395
12,GATGATTGTTCTCCCAGCTGATGAATTTCACAAATCGAGTAAACAAATTTTCCTAATCTTTCTGTTCAAGCGCCATCTAC,0.237
13,GATGATTGTTCTCCCAGCTGATGAATTCTCTGCCTCGAGTAAACAAATTTTCCTAATCTTTCTGTTCAAGCGCCATCTAC,0.284
14,GATGATTGTTCTCCCAGCTGATGAATTCCTAGTTTCGAGTAAACAAATTTTCCTAATCTTTCTGTTCAAGCGCCATCTAC,0.31
15,GATGATTGTTCTCCCAGCTGATGAATTTAGGATTTCGAGTAAACAAATTTTCCTAATCTTTCTGTTCAAGCGCCATCTAC,0.408
16,GATGATTGTTCTCCCAGCTGATGAATTGCCACCTTCGAGTAAACAAATTTTCCTAATCTTTCTGTTCAAGCGCCATCTAC,1.08
17,GATGATTGTTCTCCCAGCTGATGAATTATCGTGCTCGAGTAAACAAATTTTCCTAATCTTTCTGTTCAAGCGCCATCTAC,0.523
18,GATGATTGTTCTCCCAGCTGATGAATTTACACGATCGAGTAAACAAATTTTCCTAATCTTTCTGTTCAAGCGCCATCTAC,0.459
19,GATGATTGTTCTCCCAGCTGATGAATTCCTACAGTCGAGTAAACAAATTTTCCTAATCTTTCTGTTCAAGCGCCATCTAC,0.239
20,GATGATTGTTCTCCCAGCTGATGAATTGCATTCCTCGAGTAAACAAATTTTCCTAATCTTTCTGTTCAAGCGCCATCTAC,3.39
21,GATGATTGTTCTCCCAGCTGATGAATTAAACTTGTCGAGTAAACAAATTTTCCTAATCTTTCTGTTCAAGCGCCATCTAC,0.39

row,Sequence,binding signal (RPM ratio (pull-down/input))
1,GATGATTGTTCTCCCAGCTGATGAATTACGATGATCGAGTAAACAAATTTTCCTAATCTTTCTGTTCAAGCGCCATCTAC,0.68
2,GATGATTGTTCTCCCAGCTGATGAATTGATCAACTCGAGTAAACAAATTTTCCTAATCTTTCTGTTCAAGCGCCATCTAC,0.484
3,GATGATTGTTCTCCCAGCTGATGAATTTGTTCACTCGAGTAAACAAATTTTCCTAATCTTTCTGTTCAAGCGCCATCTAC,2.56
4,GATGATTGTTCTCCCAGCTGATGAATTTTTGGAGTCGAGTAAACAAATTTTCCTAATCTTTCTGTTCAAGCGCCATCTAC,0.23
5,GATGATTGTTCTCCCAGCTGATGAATTTACAGGGTCGAGTAAACAAATTTTCCTAATCTTTCTGTTCAAGCGCCATCTAC,0.375
6,GATGATTGTTCTCCCAGCTGATGAATTAGAGTGTTCGAGTAAACAAATTTTCCTAATCTTTCTGTTCAAGCGCCATCTAC,0.85
7,GATGATTGTTCTCCCAGCTGATGAATTTGGTCACTCGAGTAAACAAATTTTCCTAATCTTTCTGTTCAAGCGCCATCTAC,0.69
8,GATGATTGTTCTCCCAGCTGATGAATTAATCAAATCGAGTAAACAAATTTTCCTAATCTTTCTGTTCAAGCGCCATCTAC,0.25
9,GATGATTGTTCTCCCAGCTGATGAATTGCCGTTTTCGAGTAAACAAATTTTCCTAATCTTTCTGTTCAAGCGCCATCTAC,0.855
10,GATGATTGTTCTCCCAGCTGATGAATTTAGTTTCTCGAGTAAACAAATTTTCCTAATCTTTCTGTTCAAGCGCCATCTAC,2.13
11,GATGATTGTTCTCCCAGCTGATGAATTGGCGTAGTCGAGTAAACAAATTTTCCTAATCTTTCTGTTCAAGCGCCATCTAC,0.524
12,GATGATTGTTCTCCCAGCTGATGAATTGACCGTTTCGAGTAAACAAATTTTCCTAATCTTTCTGTTCAAGCGCCATCTAC,0.403
13,GATGATTGTTCTCCCAGCTGATGAATTTCCTATGTCGAGTAAACAAATTTTCCTAATCTTTCTGTTCAAGCGCCATCTAC,0.275
14,GATGATTGTTCTCCCAGCTGATGAATTATATTGATCGAGTAAACAAATTTTCCTAATCTTTCTGTTCAAGCGCCATCTAC,4.3
15,GATGATTGTTCTCCCAGCTGATGAATTCCTTGTATCGAGTAAACAAATTTTCCTAATCTTTCTGTTCAAGCGCCATCTAC,0.47
16,GATGATTGTTCTCCCAGCTGATGAATTGTGCGGTTCGAGTAAACAAATTTTCCTAATCTTTCTGTTCAAGCGCCATCTAC,1.48
17,GATGATTGTTCTCCCAGCTGATGAATTTCTCTCATCGAGTAAACAAATTTTCCTAATCTTTCTGTTCAAGCGCCATCTAC,0.291
18,GATGATTGTTCTCCCAGCTGATGAATTCCCAAACTCGAGTAAACAAATTTTCCTAATCTTTCTGTTCAAGCGCCATCTAC,0.252
19,GATGATTGTTCTCCCAGCTGATGAATTAGAACACTCGAGTAAACAAATTTTCCTAATCTTTCTGTTCAAGCGCCATCTAC,0.469
20,GATGATTGTTCTCCCAGCTGATGAATTAGTGAGGTCGAGTAAACAAATTTTCCTAATCTTTCTGTTCAAGCGCCATCTAC,0.587
21,GATGATTGTTCTCCCAGCTGATGAATTGCATCGATCGAGTAAACAAATTTTCCTAATCTTTCTGTTCAAGCGCCATCTAC,1.57

row,Sequence,binding signal (RPM ratio (pull-down/input))
1,GATGATTGTTCTCCCAGCTGATGAATTCCCACATTCGAGTAAACAAATTTTCCTAATCTTTCTGTTCAAGCGCCATCTAC,0.334
2,GATGATTGTTCTCCCAGCTGATGAATTGCATAGTTCGAGTAAACAAATTTTCCTAATCTTTCTGTTCAAGCGCCATCTAC,1.11
3,GATGATTGTTCTCCCAGCTGATGAATTCAAGCAGTCGAGTAAACAAATTTTCCTAATCTTTCTGTTCAAGCGCCATCTAC,0.501
4,GATGATTGTTCTCCCAGCTGATGAATTGCTGCCATCGAGTAAACAAATTTTCCTAATCTTTCTGTTCAAGCGCCATCTAC,2.29
5,GATGATTGTTCTCCCAGCTGATGAATTGACTGACTCGAGTAAACAAATTTTCCTAATCTTTCTGTTCAAGCGCCATCTAC,0.319
6,GATGATTGTTCTCCCAGCTGATGAATTCAAATACTCGAGTAAACAAATTTTCCTAATCTTTCTGTTCAAGCGCCATCTAC,0.528
7,GATGATTGTTCTCCCAGCTGATGAATTAGAGGTTTCGAGTAAACAAATTTTCCTAATCTTTCTGTTCAAGCGCCATCTAC,0.552
8,GATGATTGTTCTCCCAGCTGATGAATTCAGAGGTTCGAGTAAACAAATTTTCCTAATCTTTCTGTTCAAGCGCCATCTAC,0.344
9,GATGATTGTTCTCCCAGCTGATGAATTACAATGATCGAGTAAACAAATTTTCCTAATCTTTCTGTTCAAGCGCCATCTAC,0.578
10,GATGATTGTTCTCCCAGCTGATGAATTCTTAATATCGAGTAAACAAATTTTCCTAATCTTTCTGTTCAAGCGCCATCTAC,0.369
11,GATGATTGTTCTCCCAGCTGATGAATTTCTCAGTTCGAGTAAACAAATTTTCCTAATCTTTCTGTTCAAGCGCCATCTAC,0.213
12,GATGATTGTTCTCCCAGCTGATGAATTTTACTCGTCGAGTAAACAAATTTTCCTAATCTTTCTGTTCAAGCGCCATCTAC,0.295
13,GATGATTGTTCTCCCAGCTGATGAATTCCAAGGATCGAGTAAACAAATTTTCCTAATCTTTCTGTTCAAGCGCCATCTAC,0.174
14,GATGATTGTTCTCCCAGCTGATGAATTACCGGACTCGAGTAAACAAATTTTCCTAATCTTTCTGTTCAAGCGCCATCTAC,0.242
15,GATGATTGTTCTCCCAGCTGATGAATTTATTACATCGAGTAAACAAATTTTCCTAATCTTTCTGTTCAAGCGCCATCTAC,0.906
16,GATGATTGTTCTCCCAGCTGATGAATTAAAACGCTCGAGTAAACAAATTTTCCTAATCTTTCTGTTCAAGCGCCATCTAC,0.357
17,GATGATTGTTCTCCCAGCTGATGAATTCCACCACTCGAGTAAACAAATTTTCCTAATCTTTCTGTTCAAGCGCCATCTAC,0.469
18,GATGATTGTTCTCCCAGCTGATGAATTACTTATGTCGAGTAAACAAATTTTCCTAATCTTTCTGTTCAAGCGCCATCTAC,0.667
19,GATGATTGTTCTCCCAGCTGATGAATTAGAGCTCTCGAGTAAACAAATTTTCCTAATCTTTCTGTTCAAGCGCCATCTAC,0.326
20,GATGATTGTTCTCCCAGCTGATGAATTGTCCGTCTCGAGTAAACAAATTTTCCTAATCTTTCTGTTCAAGCGCCATCTAC,0.35
21,GATGATTGTTCTCCCAGCTGATGAATTGACGCTCTCGAGTAAACAAATTTTCCTAATCTTTCTGTTCAAGCGCCATCTAC,0.744
